# Assay results: PubChem BioAssay AID485281 (National Center for Advancing Translational Sciences (NCATS), 2010)
# Among all 350,000 compounds or so, about 260 (0.074%) were called active. Inconclusive means that the source gave no clear call. Such entries were picked first, then a sample of the others. The call rests on the fitted dose curve; in most records, active means well fitted inhibition curve with a large enough effect; inconclusive means small, poorly fitted or top-dose-only effect; inactive means no such curve, though single readings can be large or run the other way. Potencies of inconclusive entries are doubtful fits and often do not repeat.
# Biological target: Ferritin light chain (Equus caballus) (UniProt P02791)
# Assay: qHTS Assay for Identification of Novel General Anesthetics; further: nearly all actives have a fitted effect of over 20% in size
# Conditions: apoferritin/1-aminoanthracene competitive binding, fluorescence; series mostly up to 77.5 µM
# Procedure, shortened: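 Read-out: endpoint 1-AMA fluorescence, excitation 380 nm and emission 535 nm, after compounds sit 10 min at room temperature with 10 uM horse-spleen apoferritin in 50% saturated 1-AMA/PBS. Values come from four-parameter Hill fits.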
# Potency means the concentration at half of the fitted maximal effect; tags describe the fitted curve by direction and shape.
# UniProt P02791, sequence (P02791 whole entry, looked up): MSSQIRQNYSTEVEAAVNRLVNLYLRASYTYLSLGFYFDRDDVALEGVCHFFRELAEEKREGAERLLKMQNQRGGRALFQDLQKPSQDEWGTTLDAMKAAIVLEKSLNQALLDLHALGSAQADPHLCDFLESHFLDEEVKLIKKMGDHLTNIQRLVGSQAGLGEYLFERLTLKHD
row,Structure (SMILES),Potency
1,Cn1c(=O)c2c(nc(SCCN3CCOCC3)n2Cc2cccc3ccccc23)n(C)c1=O,"inconclusive: 25.1 µM [inhibitor, partial curve]"
2,CC(C)N(C(=O)CSc1nnc(Cc2csc(Nc3ccccc3)n2)o1)C(C)C,"inconclusive: 35.5 µM [inhibitor, partial curve]"
3,CCOC(=O)CSc1nc2sccc2c(=O)[nH]1,"inconclusive: 39.8 µM [inhibitor, single point]"
4,C/C(Cl)=C/Cn1c(=O)c2c(nc(Br)n2Cc2ccccc2)n(C)c1=O,"inconclusive: 6.31 µM [inhibitor, full curve, poor fit]"
5,CCOc1ccc2nc(N3CCCC(C(=O)Nc4ccc(OC)c(Cl)c4)C3)sc2c1 (stereo not drawn),inactive
6,CCC(C(=O)Nc1cc(C)nn1-c1nc(C)cc(C)n1)c1ccccc1 (stereo not drawn),"inconclusive: 20 µM [inhibitor, partial curve]"
7,C[C@H]1C(c2ccc(F)cc2)=NN(c2ccccc2)[C@@H]1CO,inactive
8,CCN(CC)c1cnn(C/C(=N\OC)c2ccc(Cl)cc2)c(=O)c1Br,"inconclusive: 39.8 µM [inhibitor, partial curve]"
9,COC(=O)C1(C(O)C(=O)c2ccc(C)cc2C)CCCCC1 (stereo not drawn),"inconclusive: 20 µM [inhibitor, partial curve]"
10,CSc1ccc(C(=S)N2CCCCCC2)cc1,"inconclusive: 28.2 µM [inhibitor, partial curve]"
11,CC(C)c1ccc(NS(=O)(=O)c2ccc3[nH]cc(C(=O)NCC4CCCO4)c(=O)c3c2)cc1 (stereo not drawn),"inconclusive: 7.08 µM [inhibitor, full curve]"
12,Clc1ccc(COn2c(-c3ccc(Cl)cc3Cl)nc3ncccc32)cc1,"inconclusive: 35.5 µM [inhibitor, partial curve]"
13,CN(C)S(=O)(=O)c1ccc2c(c1)N(CC(=O)Nc1ccc(F)cc1)C(=O)CS2,inactive
14,CCc1ccc(N(C(=O)c2csnn2)C(C(=O)NCc2ccccc2)c2ccco2)cc1 (stereo not drawn),"inconclusive: 11.2 µM [inhibitor, single point]"
15,Cc1ccccc1N(C(=O)c1snc(C(N)=O)c1N)C(C(=O)NCC1CCCO1)c1ccc(F)cc1 (stereo not drawn),inactive
16,COc1ccc(Cl)cc1CN1C(=O)NC2(CCCCCC2)C1=O,"inconclusive: 12.6 µM [inhibitor, partial curve]"
17,CCc1ccc(S(=O)(=O)Nc2ccc3[nH]c(=O)sc3c2)cc1,inactive
18,O=C(Nc1cccc(Cl)c1Cl)c1snnc1-c1ccccc1,"inconclusive: 31.6 µM [inhibitor, partial curve]"
19,Cc1cccc(N2CCN(C(=O)CN3C(=O)COc4ccc(S(=O)(=O)N5CCOCC5)cc43)CC2)c1C,inactive
20,CCc1ccccc1NC(=O)c1cc(C2CC2)on1,"inconclusive: 31.6 µM [inhibitor, partial curve]"
21,Cc1ccc2nc(Cc3ccc(N)cc3)oc2c1,"inconclusive: 25.1 µM [inhibitor, partial curve]"
22,Cc1ccc(-c2nnn(CC(=O)N(Cc3ccccc3)C(C(=O)NC(C)(C)C)c3ccncc3)n2)o1 (stereo not drawn),"inconclusive: 28.2 µM [inhibitor, single point]"

row,Structure (SMILES),Potency
1,CCC1CCCCN1C(=O)CSc1nc(-c2ccc(OC)c(OC)c2)cc(C(F)(F)F)n1 (stereo not drawn),"inconclusive: 7.08 µM [inhibitor, partial curve]"
2,COc1ccccc1NC(=O)Nc1cnccn1,inactive
3,Cc1nc(SCc2ccc(Br)cc2)[nH]c(=O)c1C,"inconclusive: 12.6 µM [inhibitor, partial curve]"
4,C=C(C)CSc1nnc(-c2cccc(Cl)c2)n1N,"inconclusive: 28.2 µM [inhibitor, partial curve]"
5,CCCC1CCC(c2ccc(OCC)cc2)=CC1=O (stereo not drawn),"inconclusive: 39.8 µM [inhibitor, single point]"
6,COc1ccc(/C(N)=N/OC(=O)CN(C)S(=O)(=O)c2ccccc2)cc1,inactive
7,c1cnc(SCCOc2cccc3ccccc23)nc1,"inconclusive: 20 µM [inhibitor, partial curve]"
8,O=S(=O)(NCCc1ccccc1)c1ccccc1Br,"inconclusive: 22.4 µM [inhibitor, partial curve]"
9,O=C(CSc1nc2cc(Cl)ccc2s1)c1ccco1,"inconclusive: 11.2 µM [inhibitor, partial curve, poor fit]"
10,c1coc(CNC2C3CC4CC(C3)CC2C4)c1 (stereo not drawn),"inconclusive: 14.1 µM [inhibitor, partial curve]"
11,COC(=O)C1=C(C)N(Cc2ccccc2)C(=O)N[C@H]1c1cccc(C(F)(F)F)c1,inactive
12,Cn1c(=O)n(C)c2cc(S(=O)(=O)Nc3ccccc3)ccc21,inactive
13,COc1ccc([N+](=O)[O-])cc1N(CC(O)CN(CC(C)C)CC(C)C)S(=O)(=O)c1ccccc1 (stereo not drawn),"inconclusive: 3.55 µM [inhibitor, full curve]"
14,CN(C)CCCN(C(=O)c1ccc(S(=O)(=O)N2CCc3ccccc3C2)cc1)c1nc2c(F)cccc2s1,"inconclusive: 28.2 µM [inhibitor, partial curve]"
15,Cc1cc(C)c(C(=O)COC(=O)CCNS(=O)(=O)c2c(Cl)cccc2Cl)cc1C,"inconclusive: 35.5 µM [inhibitor, single point]"
16,COc1ccc(/C=N/NC(=O)CO/N=C(\C)c2cccs2)cc1,"inconclusive: 20 µM [inhibitor, partial curve]"
17,O=C(OCCNc1nc(-c2ccccc2)nc2ccccc12)c1ccncc1,"inconclusive: 35.5 µM [inhibitor, single point]"
18,Cc1c(C(=O)C(=O)N2CCN(Cc3ccc4c(c3)OCO4)CC2)c2ccccc2n1C,"inconclusive: 12.6 µM [inhibitor, partial curve]"
19,O=C(CCN1C(=O)/C(=C/c2ccccc2Cl)SC1=S)NCCCN1CCOCC1,"inconclusive: 39.8 µM [inhibitor, partial curve]"
20,Cc1nc(NC(=O)CSc2nc3ccccc3s2)sc1C(=O)N(C)C,inactive
21,O=C(N/N=C/C=C/c1ccccc1)C1CC1(c1ccccc1)c1ccccc1 (stereo not drawn),"inconclusive: 8.91 µM [inhibitor, partial curve]"
